Measurements from the supplement of paper PMC9446081.
Among all 39,000 compounds or so, about 220 (0.56%) showed activity. This is one part of the list.

System: Escherichia coli K-12 BW25113
Experiment: relative growth (OD600 normalised to plate interquartile mean) (fraction); higher = less growth inhibition, active = 0.2 or less
Conditions: 50 µM; LB; incubation time: overnight (16-24 h)
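Further: static incubation at 37 °C against the wild-type strain, values averaged over two biological replicates.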

| Compound | relative growth |
| --- | --- |
| C[C@@H]1CCCCO[C@@H](CN(C)C(=O)Nc2ccc(F)cc2)[C@H](C)CN([C@@H](C)CO)C(=O)c2cc(NS(=O)(=O)c3ccccc3)ccc2O1 | inactive: 1.01 |
| COc1ccc(S(=O)(=O)Nc2ccc3c(c2)C(=O)N([C@H](C)CO)C[C@@H](C)[C@H](CN(C)Cc2ccccc2)OCCCC[C@H](C)O3)cc1 | inactive: 0.989 |
| C[C@@H]1CN([C@H](C)CO)C(=O)Cc2cc(NS(C)(=O)=O)ccc2O[C@@H]1CN(C)Cc1ccc2c(c1)OCO2 | inactive: 0.992 |
| CCOC(=O)Cn1cccc2oc(=O)nc1-2 | inactive: 0.98 |
| Cc1ccc(S(=O)(=O)Nc2ccc3c(c2)C(=O)N([C@H](C)CO)C[C@H](C)[C@H](CN(C)Cc2ccc(Cl)c(Cl)c2)OCCCC[C@H](C)O3)cc1 | inactive: 0.838 |
| C[C@@H]1CN([C@H](C)CO)C(=O)c2cc(NC(=O)Nc3ccc(F)cc3)ccc2O[C@@H]1CN(C)Cc1ccc(Oc2ccccc2)cc1 | inactive: 1.03 |
| O=C(C[C@@H]1CC=CCC[C@@H](Cc2ccc(F)cc2)C(=O)OC[C@H](Cc2c[nH]c3ccccc23)NC1=O)N[C@@H](CO)Cc1ccccc1 | inactive: 0.958 |
| Cc1cc(C(=O)Nc2cccc3c2O[C@H](CN(C)C(=O)Nc2ccccc2)[C@H](C)CN([C@@H](C)CO)C3=O)n(C)n1 | inactive: 1.03 |
| C[C@@H]1CN([C@H](C)CO)C(=O)c2cccc(NS(=O)(=O)c3cn(C)cn3)c2O[C@H]1CN(C)Cc1ccc2c(c1)OCO2 | inactive: 0.994 |
| CCCNC(=O)N1C[C@@H](O)COC[C@H]2O[C@@H](CC(=O)N3CCN(C)CC3)CC[C@@H]21 | inactive: 1.02 |
| Cc1noc(C)c1NC(=O)N[C@H]1C=C[C@H](CC(=O)NCCCN(C)C)O[C@@H]1CO | inactive: 0.995 |
| CC(=O)c1ccc(OCc2c(-c3ccccc3)nnn2CC(=O)NS(=O)(=O)c2ccc(F)cc2)cc1 | inactive: 1.02 |
| Cc1cc(C(=O)Nc2cccc3c2O[C@H](CN(C)Cc2ccncc2)[C@@H](C)CN([C@H](C)CO)C3=O)n(C)n1 | inactive: 0.953 |
| COc1cccc(C#Cc2cnc3c(c2)C(=O)N([C@H](C)CO)C[C@@H](C)[C@@H](CN(C)C(=O)C2CCC2)O3)c1 | inactive: 0.925 |
| O=C(C[C@H]1CC[C@H]2NC[C@H](O)COC[C@@H]2O1)NCCN1CCCC1 | inactive: 0.996 |
| CO[C@H](CN(C)S(=O)(=O)c1ccc(F)cc1)[C@@H](C)CN([C@H](C)CO)S(=O)(=O)c1cccc(Cl)c1 | inactive: 0.928 |
| Cc1noc(C)c1NC(=O)Nc1cccc2c1O[C@H](CN(C)Cc1ccc(Cl)c(Cl)c1)[C@H](C)CN([C@H](C)CO)C2=O | inactive: 0.98 |
| CC(C)CC#Cc1cnc2c(c1)C(=O)N([C@@H](C)CO)C[C@@H](C)[C@H](CN(C)C(=O)CN1CCOCC1)O2 | inactive: 0.846 |
| CC(C)NC(=O)Nc1ccc2c(c1)C(=O)N([C@@H](C)CO)C[C@@H](C)[C@@H](CN(C)C(=O)Nc1ccccc1)OCCCC[C@@H](C)O2 | inactive: 1 |
| CCn1c(Cl)nc2c1c(=O)n(C)c(=O)n2C | inactive: 0.927 |

| Compound | relative growth |
| --- | --- |
| Cc1cn([C@H]2C[C@H](N=[N+]=[N-])[C@@H](CO)O2)c(=O)[nH]c1=O | active: 0.048 |
| COc1ccc(S(=O)(=O)N(C)C[C@H]2Oc3ccc(NS(=O)(=O)c4cccs4)cc3CC(=O)N([C@@H](C)CO)C[C@@H]2C)cc1 | inactive: 0.987 |
| COc1ccc2c3c([nH]c2c1)[C@@H](CO)N(C[C@]13CN(C1)S(=O)(=O)c1cccs1)C(=O)c1ccccc1 | inactive: 1 |
| CN1CCN(c2c(F)cc3c(=O)c(C(=O)O)cn4c3c2SCC4)CC1 | active: 0.0436 |
| O=C(/C=C/c1ccc(O)cc1)[C@H]1C(=O)[C@H]([C@@H]2O[C@H](CO)[C@@H](O)[C@H](O)[C@H]2O)C(=O)[C@@](O)([C@@H]2O[C@H](CO)[C@@H](O)[C@H](O)[C@H]2O)C1=O | inactive: 1.03 |
| C[C@H]1CN([C@@H](C)CO)C(=O)c2cc(NC(=O)Nc3cccc4ccccc34)ccc2O[C@H]1CN(C)Cc1ccccc1 | inactive: 1.02 |
| C[C@@H]1CCCCO[C@@H](CN(C)C(=O)Nc2cccc3ccccc23)[C@H](C)CN([C@@H](C)CO)C(=O)c2cc(NS(=O)(=O)c3cccs3)ccc2O1 | inactive: 1.03 |
| C[C@H]1CN([C@@H](C)CO)C(=O)c2cccc(NC(=O)Nc3cccc4ccccc34)c2O[C@H]1CN(C)Cc1ccc(C(=O)Nc2ccccc2N)cc1 | inactive: 1.01 |
| O=C1CCC(C(=O)N2CCN(CC3CC3)[C@@H]3CS(=O)(=O)C[C@@H]32)=NN1 | inactive: 1 |
| CC(C)=CCc1c2c(c3occ(-c4ccc(O)cc4)c(=O)c3c1O)C=CC(C)(C)O2 | inactive: 0.883 |
| C[C@H]1CN([C@@H](C)CO)C(=O)c2c(c3ccccc3n2C)-c2ccccc2CO[C@@H]1CN(C)C(=O)Nc1ccc(-c2ccccc2)cc1 | inactive: 1.02 |
| C=CC[C@@H](CC(=O)N[C@@H](CO)Cc1ccccc1)C(=O)NCCOC(=O)[C@H](CC=C)CC(=O)OC(C)(C)C | inactive: 1.02 |
| C[C@@H]1CCCCO[C@@H](CN(C)Cc2ccc(C(F)(F)F)cc2)[C@@H](C)CN([C@H](C)CO)C(=O)c2cc(NS(=O)(=O)c3ccccc3)ccc2O1 | inactive: 1.03 |
| CCS(=O)(=O)N1C[C@]2(CCN(CC2)S(=O)(=O)c2cn(cn2)C)c2c(n(c3cc(ccc23)OC)C)[C@H]1CO | inactive: 0.986 |
| C[C@H]1CN([C@@H](C)CO)C(=O)Cc2cc(NS(=O)(=O)c3cn(C)cn3)ccc2O[C@@H]1CN(C)C(=O)NC1CCCCC1 | inactive: 0.969 |
| COc1ccc(NC(=O)Nc2ccc3c(c2)C(=O)N([C@H](C)CO)C[C@@H](C)[C@@H](CN(C)S(=O)(=O)c2ccc(Cl)cc2)OCCCC[C@@H](C)O3)cc1 | inactive: 1.02 |
| C#CCOC(=O)[C@@H]1[C@@H](C(=O)O)[C@@H]2C=C[C@@H]1C2 | inactive: 1.01 |
| C[C@H](CO)N1C[C@H](C)[C@H](CN(C)Cc2ccc(Oc3ccccc3)cc2)Oc2c(NS(=O)(=O)c3ccccc3)cccc2C1=O | inactive: 1 |
| Cc1noc(C)c1NC(=O)Nc1ccc2c(c1)C(=O)N([C@H](C)CO)C[C@H](C)[C@H](CN(C)CC1CC1)OCCCC[C@H](C)O2 | inactive: 1.01 |
| C[C@@H]1CN([C@H](C)CO)C(=O)c2cccc(NC(=O)Nc3ccc(F)cc3)c2O[C@@H]1CN(C)Cc1ccc(-c2ccccc2)cc1 | inactive: 1 |

| Compound | relative growth |
| --- | --- |
| Cc1ccc(S(=O)(=O)N(C)C[C@H]2OCCCC[C@H](C)Oc3ccc(NC(=O)Nc4ccccc4)cc3C(=O)N([C@H](C)CO)C[C@H]2C)cc1 | inactive: 1.03 |
| NCc1ccc2nsnc2c1 | inactive: 0.98 |
| C[C@H]1CCCCO[C@H](CN(C)C(=O)Nc2ccc(F)cc2)[C@@H](C)CN([C@@H](C)CO)C(=O)c2cc(NC(=O)CCC(F)(F)F)ccc2O1 | inactive: 1.04 |
| CC(=O)SC1CC2=CC(=O)CCC2(C)C2CCC3(C)C(CCC34CCC(=O)O4)C12 (centres undefined) | inactive: 1.11 |
| Cc1ccccc1S(=O)(=O)N1C[C@H](O)COC[C@@H]2O[C@H](CC(=O)NCCc3ccccc3)CC[C@H]21 | inactive: 1.01 |
| C[C@@H]1CN([C@H](C)CO)C(=O)Cc2cc(NC(=O)Cn3cnnn3)ccc2O[C@@H]1CN(C)Cc1ccc(-c2ccccc2)cc1 | inactive: 1.02 |
| Cc1noc(C)c1N | inactive: 0.981 |
| Cc1ccc(S(=O)(=O)Nc2ccc3c(c2)C(=O)N([C@H](C)CO)C[C@H](C)[C@@H](CN(C)Cc2ccc(Cl)c(Cl)c2)OCCCC[C@H](C)O3)cc1 | inactive: 0.992 |
| COc1ccc([Si](C)(C)[C@H]2[C@H](CC(=O)N(CCO)Cc3ccccc3)O[C@@]3(C(=O)N(Cc4ccc(N5CCOC5=O)cc4)c4ccccc43)[C@@H]2C)cc1 | inactive: 0.988 |
| COC(=O)c1cc(=O)[nH]c2c1c(=O)n(C)c(=O)n2C | inactive: 1.02 |
| C[C@@H]1CN([C@@H](C)CO)S(=O)(=O)c2ccc(-c3cncnc3)cc2O[C@H]1CN(C)C(=O)c1ccc2c(c1)OCO2 | inactive: 0.995 |
| C[C@@H]1CCCCO[C@@H](CN(C)C(=O)C2CCCCC2)[C@H](C)CN([C@@H](C)CO)C(=O)c2cc(NS(=O)(=O)c3cccs3)ccc2O1 | inactive: 0.982 |
| COc1ccc2c3c([nH]c2c1)[C@H](CO)N(C[C@]13CCN(CC1)C(=O)Nc1ccc2c(c1)OCO2)C(=O)Nc1ccc(cc1)F | inactive: 1.01 |
| C[C@H]1CC/C=C\[C@H]2O[C@@]34C=CCN(c5ccc(Cl)cc5)C(=O)[C@H]3N(CCO)C(=O)[C@]4(C)[C@@H]2C(=O)O1 | inactive: 0.997 |
| CN1C(=O)c2cc(NC(=O)C3CCOCC3)ccc2OC[C@H]2O[C@@H](CC(=O)NCCc3ccncc3)CC[C@H]21 | inactive: 0.997 |
| C[C@@H]1CN([C@@H](C)CO)C(=O)c2c(c3ccccc3n2C)-c2ccccc2CO[C@H]1CN(C)Cc1cccc(C(=O)Nc2ccccc2N)c1 | inactive: 0.998 |
| C[C@H](CO)N1C[C@H](C)[C@@H](CN(C)C(=O)Nc2ccc(C(F)(F)F)cc2)OCCCC[C@H](C)Oc2ccc(NC(=O)Nc3ccc4c(c3)OCO4)cc2C1=O | inactive: 1.01 |
| C[C@@H]1CN([C@H](C)CO)C(=O)c2cccc(NS(=O)(=O)c3cccs3)c2O[C@@H]1CN(C)S(=O)(=O)c1cn(C)cn1 | inactive: 0.978 |
| CN1CCN(C(=O)C[C@H]2C[C@@H]3c4cc(NS(=O)(=O)c5ccc(F)cc5)ccc4O[C@@H]3[C@@H](CO)O2)CC1 | inactive: 1.03 |
